Source: PubChem BioAssay AID1259400 (National Center for Advancing Translational Sciences (NCATS), 2018)
In all, about 350,000 compounds went through this assay and about 2,100 (0.6%) were called active. The shares of active, inactive and inconclusive entries below differ from those in the screen.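 How the source made its calls: active means activity change of -60% or lower, but not beyond a set lower limit; inconclusive means change between -60% and -40%, or beyond the set limit; inactive means change above -40%.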 Some structures have more than one record in an assay (separate samples or runs), and their calls can disagree.

biological target: Relaxin receptor 1 (Homo sapiens) (UniProt Q9HBX9); test: qHTS Assay for Antagonists of the Relaxin Receptor RXFP1; details: HEK293-RXFP1, relaxin-stimulated cAMP HTRF, 30 min; at 57.5 µM; hits give low values
UniProt Q9HBX9, sequence (Q9HBX9 whole entry, looked up): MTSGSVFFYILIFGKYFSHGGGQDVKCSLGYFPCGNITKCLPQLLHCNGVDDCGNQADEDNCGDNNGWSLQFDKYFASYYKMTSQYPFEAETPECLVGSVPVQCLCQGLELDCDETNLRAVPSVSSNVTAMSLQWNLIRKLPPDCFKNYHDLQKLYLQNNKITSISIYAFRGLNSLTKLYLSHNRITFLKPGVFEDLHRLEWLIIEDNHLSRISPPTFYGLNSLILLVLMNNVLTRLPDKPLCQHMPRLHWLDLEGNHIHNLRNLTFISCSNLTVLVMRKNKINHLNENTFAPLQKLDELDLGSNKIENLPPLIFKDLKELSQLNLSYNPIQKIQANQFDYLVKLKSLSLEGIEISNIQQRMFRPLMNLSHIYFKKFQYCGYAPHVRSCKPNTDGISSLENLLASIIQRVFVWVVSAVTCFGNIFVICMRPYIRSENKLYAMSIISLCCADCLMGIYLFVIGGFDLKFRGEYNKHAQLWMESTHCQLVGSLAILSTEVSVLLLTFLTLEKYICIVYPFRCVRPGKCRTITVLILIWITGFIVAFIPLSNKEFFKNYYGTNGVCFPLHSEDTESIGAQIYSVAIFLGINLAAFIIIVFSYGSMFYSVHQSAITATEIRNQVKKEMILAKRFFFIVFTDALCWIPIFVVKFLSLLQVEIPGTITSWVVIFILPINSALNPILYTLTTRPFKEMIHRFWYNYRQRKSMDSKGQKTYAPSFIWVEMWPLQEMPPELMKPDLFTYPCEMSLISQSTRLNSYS
On the % scale 0 is the no-effect control and ±100 the full control effect.

| SMILES | activity change, negative = inhibition |
| --- | --- |
| CCOC(=O)c1c(S(=O)(=O)NCC(=O)NCc2ccccc2)c(C)n(C)c1C | inconclusive: -52.2% |
| Cc1cc(C)c2sc(N(CCCN(C)C)C(=O)COc3ccc(Cl)cc3)nc2c1 | active: -71.7% |
| COc1ccc(/C=N/Nc2cc(C)nc3ccc(Br)cc23)cc1 | inconclusive: -40.6% |
| CN(C)CCCN=Cc1c(-c2ccccc2)[nH]n(-c2nc3ccccc3s2)c1=O | inconclusive: -40.3% |
| CCCCCNC(=O)C1CCC(Cn2c(=S)[nH]c3ccccc3c2=O)CC1 (stereo not drawn) | inconclusive: -53.5% |
| Oc1cccc(NC(=S)N=Nc2c(O)[nH]c3ccc(Br)cc23)c1 | inconclusive: -47.2% |
| COC(=O)c1ccc(CN2CCc3ccccc32)cc1 | inactive: -11.9% |
| O=C(Nc1ccccc1)c1csc(-c2ccccc2)n1 | inactive: 2.33% |
| CCN1CCc2c(sc(NC(=S)NC(=O)c3ccc(Cl)cc3)c2C(N)=O)C1 | active: -110% |
| Nc1sc(-c2ccccc2)cc1-c1n[nH]c(=S)n1C1CCCCC1 | inconclusive: -56.3% |
| Cc1nnnn1/C(=C\c1ccccc1)C(=O)OCC(=O)N1CC2(C)CC1CC(C)(C)C2 (stereo not drawn) | active: -62.1% |
| CCc1cccc(NC(=O)CN2c3ccccc3S(=O)(=O)c3ccccc32)c1 | inactive: -17% |
| O=C(CCN1C(=O)c2ccccc2S1(=O)=O)Nc1ccc(F)c(F)c1F | active: -76% |
| O=C(/C=C/c1ccnc2ccccc12)c1cccs1 | inconclusive: -45.8% |
| O=C(COC(=O)CNC(=O)c1ccc(Cl)cc1Cl)NC1CCCCCCC1 | active: -61.2% |
| CCOc1cccc(/C=N/NC(=O)c2cc(-c3cccn3C)n[nH]2)c1O | active: -76.9% |
| CCCCCc1nnc(NC(=O)Cc2cccs2)s1 | inactive: 0.326% |
| COc1ccc(O)c(C(=O)c2cnc3c(c2)c(-c2ccc(F)cc2)c(C#N)c(=O)n3C)c1 | inconclusive: -57.5% |
| COc1ccc(CN2CCN(S(=O)(=O)c3ccc(NC(C)=O)cc3)CC2)c(OC)c1OC | inconclusive: -45.1% |
| Cc1ccc(-n2nnnc2SC(C)C(N)=O)c(C)c1 (stereo not drawn) | inactive: -3.7% |
| CC1=NN(c2ccccc2)C(=O)/C1=C\c1ccc(Oc2ccc([N+](=O)[O-])cc2[N+](=O)[O-])cc1 | inconclusive: -54.2% |
| O=C(CSc1nnc(-c2ccccc2)c(-c2ccccc2)n1)NCc1ccco1 | inactive: 3.97% |

| SMILES | activity change, negative = inhibition |
| --- | --- |
| CN(C(=O)CSc1nc2ccccc2[nH]1)c1ccc(F)cc1 | inactive: -1.66% |
| CCC1CCc2sc(C(=O)NC3CCN(Cc4ccccc4)CC3)cc2C1 (stereo not drawn) | inconclusive: -45.5% |
| CCOc1ccc(C(=O)Nc2ccc3nc4c(c(Nc5ccccc5OC)c3c2)CCCC4)cc1 | inconclusive: -41.7% |
| CSc1cnn(-c2ccccc2)c(=O)c1SC | inconclusive: -52.5% |
| Cn1c(-c2cc(Br)ccc2O)n[nH]c1=S | inconclusive: -44.1% |
| Cc1cccc(C)c1NC(=O)Cn1cc(S(=O)(=O)Cc2ccc(F)cc2)c2ccccc21 | inconclusive: -45.8% |
| Cc1ccc(C2CCN(C(=S)NC3CCCCC3)C2)cc1 (stereo not drawn) | inconclusive: -44.2% |
| O=C(O)c1cccc(NC(=S)N/N=C/c2ccccc2OCc2cccc(Br)c2)c1 | inconclusive: -48.2% |
| CCOc1ccc(OCCn2c(=S)[nH]c3ccccc32)cc1 | active: -63.2% |
| COc1cc(SC)ccc1C(=O)OCC(=O)NCC(C)C | inactive: -6.19% |
| O=C(Nc1nnc(C2=COCCO2)o1)c1ccc(Cc2ccccc2)cc1 | active: -65.1% |
| O=C(Nc1ccc(N2CCCC2)c(Cl)c1)c1cccs1 | inconclusive: -41% |
| Cc1n[nH]c(C)c1N1C(=O)c2cccc3c(N4CCCCCC4)ccc(c23)C1=O | active: -65.4% |
| c1ccc(Nc2scc(-c3ccccc3)[n+]2Cc2ccco2)cc1 | inconclusive: -42.2% |
| COCCNC(=O)CSc1nnc(-c2ccc(OC)c(OC)c2)c(-c2ccc(OC)c(OC)c2)n1 | inconclusive: -43.8% |
| CCOC(=O)c1cc(-c2ccc(F)cc2)n(CCC(=O)Nc2ccccc2OC)c1C | inconclusive: -47.9% |
| COc1ccc(-c2cn[nH]c2-c2ccc(OCc3ccc(F)cc3)cc2O)cc1OC | active: -72.9% |
| CCOC(=O)c1ccccc1NC(=O)N(Cc1ccc(C)cc1)Cc1cccn1-c1nnc(N2CCCC2=O)s1 | inactive: 0.949% |
| CCOC(=O)N1CCc2c(sc(NCc3ccc(OC)c(Br)c3)c2C(=O)Nc2cc(OC)ccc2OC)C1 | inconclusive: -43.2% |
| Fc1ccc(CNc2cnccn2)cc1 | inactive: 8.73% |
| CCOC(=O)C1=C(COC(=O)c2ccc(C)s2)NC(=O)NC1C (stereo not drawn) | inconclusive: -58.4% |
| Cc1ccc2c(c1)c1c(n2CC(O)CNC2CCCCC2)CCCC1 (stereo not drawn) | inconclusive: -54.8% |

| SMILES | activity change, negative = inhibition |
| --- | --- |
| CCOC(=O)c1ccc(NC(=O)c2nc(S(=O)(=O)Cc3ccccc3)ncc2Cl)cc1 | active: -61.8% |
| C/C(=N\NC(=O)c1c(C)nc2ccccn12)c1ccc(C(C)(C)C)cc1 | inactive: -14.3% |
| COc1ccc(CNC(=O)c2oc3c(c2C)-c2nn(Cc4ccccc4Cl)cc2CC3)cc1 | inconclusive: -40.7% |
| CC1=C(C(N)=O)C(c2cccc(C)c2)n2nc(-c3ccc(Cl)cc3)nc2N1 (stereo not drawn) | active: -61.9% |
| COCCN1C(=O)Cc2c1nc(N)c1c(N)nc(N3CCN(c4ccc(F)cc4)CC3)c(C#N)c21 | inactive: -3.46% |
| C/C(=N\NC(N)=O)c1c(F)cccc1F | inactive: -7.33% |
| CCCCOP(=O)(OCCCC)C(Nc1ccc(C(=O)OCC)cc1)c1ccncc1 (stereo not drawn) | inconclusive: -46.9% |
| Cc1ccc(Cn2c(=O)c3ccccc3n3c(-c4ccccc4)nnc23)cc1 | inactive: -2.64% |
| Cc1oc(-c2ccc3ccccc3c2)nc1CN(C)C(C)c1ccncn1 (stereo not drawn) | inconclusive: -41.4% |
| CCCCNC(=O)CSc1nc2n[nH]c(C)c2c(=N)n1-c1ccccc1CC | inconclusive: -53.8% |
| CC1CC(C)CN(S(=O)(=O)c2ccc3c(c2)oc(=O)n3CC(=O)NCc2cccnc2)C1 (stereo not drawn) | inactive: 4.18% |
| CC1CCN(c2ccc([N+](=O)[O-])cc2C(=O)NCC2CCCO2)CC1 (stereo not drawn) | inactive: -1.6% |
| Cc1nn(-c2ccc(Cl)cc2)c(Cl)c1/C=N/NC(=O)c1ccc(NS(=O)(=O)c2cccs2)cc1 | inconclusive: -46.1% |
| O=c1oc2ccc(Br)cc2cc1-c1nc2ccccc2o1 | inactive: -4.38% |
| Cc1ccc(CNC(=O)c2cc3c(=O)n4ccccc4nc3n(CC3CCCO3)c2=N)cc1 (stereo not drawn) | inactive: 10.3% |
| CC(=O)Nc1ccc(OCc2nnc(-c3ccc(Cl)cc3)o2)cc1 | inactive: 8.7% |
| Cc1cc2ccc3ccccc3c2cc1CN(C)C | active: -107% |
| CCCCCOc1ccc(C(=O)N(Cc2ccccc2)C2CCS(=O)(=O)C2)cc1 (stereo not drawn) | inconclusive: -49.5% |
| Clc1ccc(C2=NNC(=NCC3CCCO3)SC2)cc1 (stereo not drawn) | inactive: -6.06% |
| COc1cc(CN(CCN(C)C)Cc2ccccc2)ccc1OCc1ccccc1 | inconclusive: -44.1% |
| CCCCC(=O)NC(=S)Nc1cccc(C(=O)O)c1 | inconclusive: -41.6% |
| Cc1ccc(S(=O)(=O)c2nnn3c2nc(Nc2ccc(C(C)C)cc2)c2sccc23)cc1C | inactive: 1.61% |

| SMILES | activity change, negative = inhibition |
| --- | --- |
| Fc1ccc(NC(=S)NC2CCN(Cc3ccccc3)CC2)cc1 | inactive: -5.97% |
| CCOC(=O)c1ccccc1NC(=O)c1c(-c2ccccc2)noc1C | inactive: -15% |
| COc1cccc(CN(C(=O)c2oc3ccc(Br)cc3c2C)C2CCS(=O)(=O)C2)c1 (stereo not drawn) | inactive: -4.42% |
| CC(C)C(=O)N1CCCCCCN1C(=O)C(C)C | inactive: 5.9% |
| COCCCNC(=O)C1CCC(CNS(=O)(=O)c2ccc3c(c2)CC(C)N3C(=O)C2CC2)CC1 (stereo not drawn) | inactive: 18.9% |
| O=C1c2c(O)ccc(O)c2C(=O)c2c(NCCNCCO)ccc(NCCNCCO)c21 | inconclusive: -52.8% |
| CCOC(=O)Nc1ccc2c(c1)C(=NNC(N)=S)c1ccccc1-2 | inconclusive: -42.2% |
| COc1ccccc1N1CCN(/N=C/C=C/c2ccccc2[N+](=O)[O-])CC1 | inconclusive: -42.6% |
| CCN(CC)c1ccc(C=C2SC(=S)NC2=O)cc1 | inconclusive: -43.1% |
| Cc1cc(=O)oc2cc(OCC(=O)N3CC(C)OC(C)C3)ccc12 (stereo not drawn) | inactive: -9.38% |
| Cc1cc(N2CCCCC2C)nc(-c2ccccc2O)n1 (stereo not drawn) | inconclusive: -44.3% |
| CCC(C)n1c(SCc2c(F)cccc2Cl)nc2ccsc2c1=O (stereo not drawn) | inconclusive: -40.6% |
| COc1ccc(CCC(=O)NCCS(=O)(=O)N2CCN(c3ccc(F)cc3)CC2)cc1 | inconclusive: -41.3% |
| CCOC(=O)c1c(NC(=O)CSc2n[nH]c(-c3ccco3)n2)sc(C)c1C | active: -74.8% |
| CCOc1ccc(C(=O)NC(C)C2COc3ccccc3O2)cc1 (stereo not drawn) | inconclusive: -51.7% |
| CC1CCCN(CC(=O)Nc2ccc(S(=O)(=O)N3CCCC3)cc2)C1 (stereo not drawn) | inactive: 2.27% |
| Cc1cccc2c(=O)c(-c3ccc4c(c3)OCO4)c(NC(=O)c3ccco3)oc12 | inconclusive: -44.7% |
| Cc1nc2sccn2c(=O)c1CCN1CCC(=C(c2ccc(F)cc2)c2ccc(F)cc2)CC1 | active: -66.8% |
| COc1ccc(NC(=O)N/C=C/c2ccc(Cl)cc2)cc1 | inconclusive: -46.2% |
| CCc1c(C)c2cc(Cl)c(O)c(CN(C)C)c2oc1=O | inactive: 6.12% |
| COc1ccccc1N1CCN(CCNC(=O)Nc2cccc(C)c2C)CC1 | inactive: -16.3% |
| CCOCCCN(C)C1CCN(C(=O)c2oc3ccccc3c2NC(=O)c2cccc([N+](=O)[O-])c2)CC1 | active: -65.7% |
